In all, about 48,000 compounds went through this assay and about 450 (0.94%) were called active. Not shown: some 19% with an inconclusive outcome. The call rests on the fitted dose curve; in most records, active means well fitted inhibition curve with a large enough effect; inconclusive means small, poorly fitted or top-dose-only effect; inactive means no such curve, though single readings can be large or run the other way. This is one part of the list.
test: Primary qHTS for Identification of Small Molecule Inhibitors of Huntingtin Promoter Activity; conditions: HEK293 HTT promoter firefly luciferase reporter (activity 0% = vehicle and -100% = no light), 24 h; series mostly up to 57.5 µM; activity change, negative = inhibition: at the top concentration; further: nearly all actives have a fitted effect of over 50% in size
From the text: Assay Provider: Russell L. Margolis M.D.
Department Neurology, Johns Hopkins University School of Medicine, Baltimore, MD
Huntington's Disease (HD) is a neurodegenerative disorder caused by a CAG repeat expansion in exon 1 of huntingtin (HTT). While there are currently no disease-modifying treatments for HD, recent efforts have focused on development of nucleotide-based therapeutics to lower HTT expression. As an alternative to siRNA or oligonucleotide methods, we hypothesized that suppression of HTT expression might be accomplished by small molecules that either (1) directly decrease HTT expression by suppressing HTT promoter activity or (2) indirectly decrease HTT expression by increasing the promoter activity of HTT-AS, the gene antisense to HTT that appears to inhibit expression of HTT.
We developed and employed a high throughput screen for modifiers of HTT and HTT-AS promoter activity using luminescent reporter HEK293 cells; of the 52,041 compounds tested, we identified 898 replicable hits. We used a rigorous stepwise approach to assess compound toxicity and the capacity of the compounds to specifically lower huntingtin protein in 5 different cell lines, including HEK293 cells, HD lymphoblastoid cells, mouse primary neurons, HD iPSCs differentiated into cortical-like neurons, and HD hESCs. We found no compounds which were able to lower huntingtin without lowering cell viability in all assays, though the potential efficacy of a few compounds at non-toxic doses could not be excluded.
SEQUENCE No. (1, 2, 3, etc.); […] (e.g., Cells, Incubation, Reagent, etc.); VALUE and DESCRIPTION.
1; Reagent; 4 uL; 2,500 Hek293 luciferase reporter cells per wells
3; Compound; 23 nL; Control inhibitor / compound library
5; Reagent; 2.5 uL; Firefly Luc reagent; Dual-Glo Luciferase Reporter Assay System (Promega)
6; Time; 10 min; room temperature incubation
7; Detection; Luminescence; FLuc
NOTES (numbers refer to sequence above)
1; High-throughput screening, measuring luminescence from a Hek293 luciferase reporter, was performed in 1,536 well white-walled tissue-culture treated plates. 2,500 cells were plated in 4 µL of Opti-MEM per well using a Multidrop Combi Reagent Dispenser (ThermoFisher).
2; Assay plates were cultured for 24 hours.
3; Control inhibitor (PTC124; final concentration of 50 uM) and compound library (at final concentrations of 460 nM - 57.5 uM) were added to the assay plate using the Kalypsis Pintool Robotic System equipped with 1536 pinheads.
4; Cells were then incubated for 24 hours at 37 degrees C prior to luminescence measurements.
5; In all cases, luminescence was measured using the Dual-Glo Luciferase Reporter Assay System (Promega) following the manufacturer's instructions.
6; Room temperature incubation.
7; Luminescence signal was obtained using the PerkinElmer ViewLux plate reader. Results were normalized to vehicle control (0% activity) and zero RLU (-100% activity).

Activity change, negative = inhibition, inactive:
Cc1cccc(CCNC(=O)c2nc(-c3ccc(Cl)cc3)n3c2CCCCC3)c1 -21.2%
CCn1c2c(c(=O)n3ncc(C(=O)Nc4ccc(F)c(Cl)c4)c13)CN(Cc1ccc(OC)cc1)CC2 -12.7%
CN(C)[C@@H]1C(=O)C(C(=O)NCN2CCCC2)=C(O)[C@@]2(O)C(=O)C3=C(O)c4c(O)cccc4[C@@](C)(O)C3C[C@@H]12 (stereo partly drawn) 15.3%
CC(C)CC(=O)N(Cc1ccccc1)S(=O)(=O)c1ccc2c(c1)oc(=O)n2C -25.6%
CCOc1ccc(C(=O)OCc2cc(=O)n3nc(C(C)C)sc3n2)cc1 -6.23%
CO/N=C(/C(=O)N[C@@H]1C(=O)N2C(C(=O)[O-])=C(C[n+]3ccn4ncccc43)CS[C@H]12)c1nsc(N)n1 1.14%
Cc1ccc(S(=O)(=O)c2cn(CC(=O)Nc3ccccc3)c3cc4c(cc3c2=O)OCO4)cc1 -18.4%
Fc1ccc(C(c2ccc(F)cc2)N2CCNCC2)cc1 3.5%
CCOc1ccccc1NC(=O)NC(CC)c1c(-n2cccc2)sc2c1CCN(C)C2 (stereo not drawn) -12.4%
CCc1ccc(Nc2nc3ccccc3c3nnc(C)n23)cc1 -11%
CCc1ccccc1NC(=O)CSc1nccn1C -27%
CCOC(=O)c1cc(OC(=O)c2cc(Cl)ccc2OC)n(-c2ccccc2)n1 -5%
CCc1ccc(S(=O)(=O)c2nnn3c2nc(NCCC(C)C)c2cc(Cl)ccc23)cc1 -9.32%
CC(=O)c1ccc(OC(=O)c2c(-c3ccccc3Cl)noc2C)cc1 2.02%
COc1ccc2c(c1)c(CC(=O)Nc1cc(C)c(OC)c(C)c1)c(C)n2C(=O)c1ccc(Cl)cc1 -23.4%
O=C(COc1ccc(Cl)cc1Cl)Nc1ccc(C(=O)OC2CCCCC2)cc1 -7.94%
Cn1nc(C(=O)Nc2cccc(C(F)(F)F)c2)c2c1-c1ccccc1S(=O)(=O)C2 9.12%
CCCN(CCC)S(=O)(=O)c1ccc(C(=O)N2CCn3c4c(c5cc(C)ccc53)CCCC42)cc1 (stereo not drawn) -40.7%
COc1ccccc1Nc1ncnc2c1nc1n2CCCCC1 -0.505%
CCOc1ccc(NS(=O)(=O)c2ccc3[nH]cc(C(=O)NCCc4ccccc4)c(=O)c3c2)cc1 17%
Cn1c(SCC(=O)Nc2ccccc2F)nc2c([nH]c3ccccc32)c1=O -9.92%
Cc1ccc(Nc2c(-c3cccc(Cl)c3)nc3cccc(C)n23)cc1 -24.7%
CCC(=O)N1c2ccccc2CC1C(=O)NCCN1CCN(c2ccccc2F)CC1 (stereo not drawn) -17.9%
Cc1ccc(NC(=O)CSc2nc(=O)n(CCN3CCOCC3)c3c2CCC3)cc1Cl -21.6%
Cn1c(=O)nc2n(-c3ccc(Br)cc3)c3cccc(Cl)c3cc-2c1=O -16.2%
CC(C)(C)OC(=O)N1CCC(c2c(C(=O)NCc3ccccn3)cnn2-c2ccccc2Cl)CC1 -4.87%
Cc1ccc(C)c(N2CCN(S(=O)(=O)c3ccc(C4CCCCC4)cc3)CC2)c1 -1.75%
CCOc1ccccc1NC(=O)CSc1nc(-c2cccs2)cc(C(F)(F)F)n1 -6.44%
COc1ccc(Cl)cc1NC(=O)c1c(NCc2cccs2)sc2c1CCC(C)C2 (stereo not drawn) -21.5%
COc1cccc(CNC(=O)C2CCN(c3ncnc4c3nc3n4CCCCC3)CC2)c1 -9.5%
O=C(Nc1cc(-c2nc3ccccc3o2)ccc1Cl)c1cc([N+](=O)[O-])ccc1N1CCOCC1 12.1%
O=C1CCC[C@@H]2[C@H]3CCC[N+]4([O-])CCC[C@@H](CN12)[C@@H]34 (stereo partly drawn) 5.31%
Cn1cc(-c2cc3n(n2)CCC(=O)N3CC(=O)NCc2ccccc2)c2ccccc21 -16.2%
CN(C)C1(CNC(=O)COc2cccc(Cl)c2)CCCCC1 -15.5%
Cc1cccc(Cn2c(SCc3ccc(C(=O)NCc4cccs4)cc3)nc3ccncc32)c1 -32.4%
Cc1cccc(C(=O)NCc2cn3cccc(C)c3n2)c1 -0.756%
O=c1cc(N2CCN(c3ccc(F)cc3)CC2)[nH]c(=O)n1-c1cccc(Br)c1 -28.3%
Cc1ccc(-n2c(=O)c3cccnc3n2CC(=O)Nc2ccccc2C(F)(F)F)cc1C -23.4%
COc1cccc(CNC(=O)C2CCCN(S(=O)(=O)c3cn(C)cn3)C2)c1 (stereo not drawn) -10.8%
Cc1ccc(C)c(NC(=O)C(NS(=O)(=O)c2ccc3c(c2)CCC(=O)N3)c2ccccc2)c1 (stereo not drawn) -16.6%
CC[C@H](C)NC(=O)CCCc1nnc2n(CCC(C)C)c(=O)c3sccc3n12 -13.3%
COc1ccccc1OC(C)C(=O)N1CCN(CCc2ccccn2)CC1 (stereo not drawn) -6.5%
COc1ccc(-c2cn3c(n2)sc2cc(C(=O)NC4CCCCC4)ccc23)cc1 -24.1%
CCOC(=O)C1CCCN(C(=O)Cn2nc(C)n3c(cc4c(OC)cccc43)c2=O)C1 (stereo not drawn) -8.07%
CCC(C)n1c(=N)c(C(=O)NC2CCCCC2)cc2c(=O)n3cc(C)ccc3nc21 (stereo not drawn) -9.02%
O=c1c2ccccc2nc2sc(Nc3cccc(C(F)(F)F)c3)nn12 20.9%
CSc1cccc(NS(=O)(=O)c2ccc3[nH]cc(C(=O)N4CCCCCC4)c(=O)c3c2)c1 4.38%
Fc1ccc(-c2noc3ncnc(NCc4cccc(Cl)c4)c23)cc1 -17%
